Measured values published in US20150299754A1, “STREPTOMYCES MICROFLAVUS STRAINS AND METHODS OF THEIR USE TO CONTROL PLANT DISEASES AND PESTS” (Bayer CropScience LP, priority 2014, published 2015).

Key:
[1] = tested on: wild-type spider mites (Tetranychus urticae strain RW); assay: Activity against wild-type spider mites on French bean
Experimental: (§1) A study was performed to determine the activity of NRRL B-50550 against abamectin-resistant spider mites (Tetranychus urticae strain NL), as compared to wild-type spider mites (Tetranychus urticae strain RW). French bean plants were treated with a wettable powder of a fermentation product of NRRL B-50550 prepared as described in the last paragraph of Example 9, at the rates shown in Table 15 below after dilution. Plants were infested one day prior to treatment with 50-100 of either strain NL or RW, and assessed for the presence of mites seven and fourteen days after treatment.

[2] = tested on: abamectin-resistant spider mites (Tetranychus urticae strain NL); assay: Activity against abamectin-resistant spider mites on French bean
Experimental: as §1

In the case of Abamectin, the “7 days Wild Type Mites (% control)” value ([1]; 0.16 ppm) is reported as 99%, the “14 days Wild Type Mites (% control)” value ([1]; 0.16 ppm) is reported as 100% and the “7 days Wild Type Mites (% control)” value ([1]; 0.8 ppm) is reported as 100%. The “14 days Wild Type Mites (% control)” value ([1]; 0.8 ppm) was 100%, the “7 days Wild Type Mites (% control)” value ([1]; 4 ppm) was 100% and the “14 days Wild Type Mites (% control)” value ([1]; 4 ppm) was 100%. For the same substance, the “7 days Wild Type Mites (% control)” value ([1]; 20 ppm) was 100%, the “14 days Wild Type Mites (% control)” value ([1]; 20 ppm) was 100% and the “7 days Resistant Mites (% control)” value ([2]; 0.16 ppm) was 0%. The “14 days Resistant Mites (% control)” value ([2]; 0.16 ppm) was 0%, the “7 days Resistant Mites (% control)” value ([2]; 0.8 ppm) was 80% and the “14 days Resistant Mites (% control)” value ([2]; 0.8 ppm) was 0%. For the same substance, the “7 days Resistant Mites (% control)” value ([2]; 4 ppm) was 99%, the “14 days Resistant Mites (% control)” value ([2]; 4 ppm) was 80% and the “7 days Resistant Mites (% control)” value ([2]; 20 ppm) was 99%. The “14 days Resistant Mites (% control)” value ([2]; 20 ppm) was 99%.
